{"source": "the supplement of paper PMC5499739", "note": "In all, about 16,000 sequences were measured (“Z-score”: median about -0.37, highest 2% from about 3.2 on). The list shows a part of the results.", "data": [{"system": "RBM10 RRM1-ZnF (GST-tagged construct)", "assay": "RNAcompete 7-mer binding Z-score; higher = stronger binding preference", "in_short": "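A one-sided Z-score for enrichment, taken across the probes containing each heptamer motif, was assigned to every such motif. The RNA came from a designed pool of 241 399 sequences up to 41 nt (1.5 nmol), bound by 20 pmol of GST-tagged RBM10 constructs in 1 ml Hepes pH 7.8 buffer with glutathione Sepharose beads for 30 min at 4°C. Four 2-min washes at 4°C preceded identification of bound RNA by microarray hybridisation.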", "values": [{"sequence": "UCACAGG", "RNAcompete 7-mer binding Z-score": 0.647}, {"sequence": "CCAAAGA", "RNAcompete 7-mer binding Z-score": -0.487}, {"sequence": "UCGUCGG", "RNAcompete 7-mer binding Z-score": -0.22}, {"sequence": "CCAAGCG", "RNAcompete 7-mer binding Z-score": -0.454}, {"sequence": "UGUCCGA", "RNAcompete 7-mer binding Z-score": -0.792}, {"sequence": "CUUGUAA", "RNAcompete 7-mer binding Z-score": -0.617}, {"sequence": "AGGGGAA", "RNAcompete 7-mer binding Z-score": 3.57}, {"sequence": "UUUUGGA", "RNAcompete 7-mer binding Z-score": 0.000789}, {"sequence": "UCGUAUA", "RNAcompete 7-mer binding Z-score": -0.236}, {"sequence": "CCUAUAG", "RNAcompete 7-mer binding Z-score": -0.779}, {"sequence": "ACCAUCC", "RNAcompete 7-mer binding Z-score": -0.893}, {"sequence": "CGUCGUG", "RNAcompete 7-mer binding Z-score": -0.103}, {"sequence": "AAUUGGC", "RNAcompete 7-mer binding Z-score": 0.553}, {"sequence": "UAAGCUC", "RNAcompete 7-mer binding Z-score": -0.503}, {"sequence": "AAAAUGC", "RNAcompete 7-mer binding Z-score": -0.197}, {"sequence": "UGUGUCG", "RNAcompete 7-mer binding Z-score": 0.043}, {"sequence": "GUGCGAA", "RNAcompete 7-mer binding Z-score": 0.638}, {"sequence": "AAAUUGC", "RNAcompete 7-mer binding Z-score": -0.548}, {"sequence": "UAGGCGC", "RNAcompete 7-mer binding Z-score": -0.236}, {"sequence": "GUAUACG", "RNAcompete 7-mer binding Z-score": 0.251}, {"sequence": "AUGUGAG", "RNAcompete 7-mer binding Z-score": 1.02}, {"sequence": "AGGGAAU", "RNAcompete 7-mer binding Z-score": 3.05}, {"sequence": "UGCGCCA", "RNAcompete 7-mer binding Z-score": -0.412}, {"sequence": "UAGCAUU", "RNAcompete 7-mer binding Z-score": -0.558}, {"sequence": "AGGACAC", "RNAcompete 7-mer binding Z-score": 0.378}, {"sequence": "GAAGUAC", "RNAcompete 7-mer binding Z-score": -0.0285}, {"sequence": "GUGGUCA", "RNAcompete 7-mer binding Z-score": 0.94}, {"sequence": "GACCCUA", "RNAcompete 7-mer binding Z-score": -0.837}, {"sequence": "GUCUCGA", "RNAcompete 7-mer binding Z-score": -0.591}, {"sequence": "UAGCCAA", "RNAcompete 7-mer binding Z-score": -0.571}, {"sequence": "UACACUG", "RNAcompete 7-mer binding Z-score": -0.431}, {"sequence": "GACGCAU", "RNAcompete 7-mer binding Z-score": -0.262}, {"sequence": "AUCUCAA", "RNAcompete 7-mer binding Z-score": -0.805}, {"sequence": "AACAUGC", "RNAcompete 7-mer binding Z-score": -0.519}, {"sequence": "CCUCCCA", "RNAcompete 7-mer binding Z-score": -0.448}, {"sequence": "GACACAA", "RNAcompete 7-mer binding Z-score": -0.454}, {"sequence": "UCUGCGU", "RNAcompete 7-mer binding Z-score": -0.688}, {"sequence": "GGAACCA", "RNAcompete 7-mer binding Z-score": 0.53}, {"sequence": "CACUAGU", "RNAcompete 7-mer binding Z-score": -0.496}, {"sequence": "GGACCAC", "RNAcompete 7-mer binding Z-score": 0.248}, {"sequence": "UCACGCU", "RNAcompete 7-mer binding Z-score": -0.47}, {"sequence": "AGGGUAU", "RNAcompete 7-mer binding Z-score": 3.69}, {"sequence": "UCGUCUC", "RNAcompete 7-mer binding Z-score": -0.662}, {"sequence": "GCCCCGU", "RNAcompete 7-mer binding Z-score": -0.386}, {"sequence": "CCAAACC", "RNAcompete 7-mer binding Z-score": -0.828}, {"sequence": "GUACUUG", "RNAcompete 7-mer binding Z-score": -0.106}, {"sequence": "AGAUCUA", "RNAcompete 7-mer binding Z-score": -0.62}, {"sequence": "CCACGAG", "RNAcompete 7-mer binding Z-score": -0.451}, {"sequence": "GGGCCCU", "RNAcompete 7-mer binding Z-score": -0.318}, {"sequence": "CGGAAGG", "RNAcompete 7-mer binding Z-score": 2.53}, {"sequence": "CUCUAGG", "RNAcompete 7-mer binding Z-score": -0.0739}, {"sequence": "CGCCGGA", "RNAcompete 7-mer binding Z-score": -0.383}, {"sequence": "UCGAGUU", "RNAcompete 7-mer binding Z-score": -0.415}, {"sequence": "CCGGAGU", "RNAcompete 7-mer binding Z-score": 0.244}, {"sequence": "GGACUAU", "RNAcompete 7-mer binding Z-score": 0.000789}, {"sequence": "ACUCCCC", "RNAcompete 7-mer binding Z-score": -0.584}, {"sequence": "GCUUCCG", "RNAcompete 7-mer binding Z-score": -0.636}, {"sequence": "ACACCUA", "RNAcompete 7-mer binding Z-score": -0.691}, {"sequence": "CAUCAAG", "RNAcompete 7-mer binding Z-score": -0.47}, {"sequence": "CUACGCC", "RNAcompete 7-mer binding Z-score": -0.743}, {"sequence": "GGUCCUU", "RNAcompete 7-mer binding Z-score": -0.474}, {"sequence": "GCGUGAG", "RNAcompete 7-mer binding Z-score": 0.855}, {"sequence": "UGCCAAC", "RNAcompete 7-mer binding Z-score": -0.636}, {"sequence": "GGAUAAU", "RNAcompete 7-mer binding Z-score": 1.2}, {"sequence": "AAGACUC", "RNAcompete 7-mer binding Z-score": -0.561}, {"sequence": "GCAGAGU", "RNAcompete 7-mer binding Z-score": 0.605}, {"sequence": "GACUCAU", "RNAcompete 7-mer binding Z-score": -0.844}, {"sequence": "CCCACGA", "RNAcompete 7-mer binding Z-score": -0.581}, {"sequence": "UGGUUCC", "RNAcompete 7-mer binding Z-score": -0.149}, {"sequence": "UUUGAUG", "RNAcompete 7-mer binding Z-score": -0.249}, {"sequence": "GGGCUCG", "RNAcompete 7-mer binding Z-score": 1.03}, {"sequence": "ACACUUU", "RNAcompete 7-mer binding Z-score": -0.88}, {"sequence": "UCGAUGU", "RNAcompete 7-mer binding Z-score": -0.444}, {"sequence": "CUGAGGA", "RNAcompete 7-mer binding Z-score": 0.433}, {"sequence": "UCGCAUU", "RNAcompete 7-mer binding Z-score": -0.555}, {"sequence": "CAUCGCC", "RNAcompete 7-mer binding Z-score": -0.811}, {"sequence": "CUAGCGC", "RNAcompete 7-mer binding Z-score": -0.629}, {"sequence": "ACUGUCC", "RNAcompete 7-mer binding Z-score": -0.714}, {"sequence": "GCGCGCU", "RNAcompete 7-mer binding Z-score": -0.243}, {"sequence": "GAUGAUA", "RNAcompete 7-mer binding Z-score": 0.508}, {"sequence": "ACGGCAG", "RNAcompete 7-mer binding Z-score": 0.469}, {"sequence": "AAGGACU", "RNAcompete 7-mer binding Z-score": 0.901}, {"sequence": "UAUGGCC", "RNAcompete 7-mer binding Z-score": -0.422}, {"sequence": "CACGAGG", "RNAcompete 7-mer binding Z-score": 0.417}, {"sequence": "GGGAACG", "RNAcompete 7-mer binding Z-score": 3.67}, {"sequence": "ACCUCCA", "RNAcompete 7-mer binding Z-score": -0.779}, {"sequence": "UGGACCG", "RNAcompete 7-mer binding Z-score": 0.244}, {"sequence": "ACGCCGA", "RNAcompete 7-mer binding Z-score": -0.818}, {"sequence": "GCAUAGU", "RNAcompete 7-mer binding Z-score": 0.147}, {"sequence": "AACUGUC", "RNAcompete 7-mer binding Z-score": -0.555}, {"sequence": "UUCACGG", "RNAcompete 7-mer binding Z-score": -0.448}]}]}
